# Assay results reported in the supplement of paper PMC12217912.
# The list shows a part of the results. The full chains were built here from the parent and the listed change. Inactive controls read about 0.05.
# B1: TEV protease; numbered along this chain (parent)
# chain: MGESLFKGPRDYNPISSSICHLTNESDGHTTSLYGIGFGPFIITNKHLFRRNNGTLVVQSLHGVFKVKDTTTLQQHLVDGRDMIIIRMPKDFPPFPQKLKFREPQREERICLVTTNFQTKSMSSMVSDTSCTFPSGDGIFWKHWIQTKDGQCGSPLVSTRDGFIVGIHSASNFTNTNNYFTSVPKNFMELLTNQEAQQWVSGWRLNADSVLWGGHKVFMVKPEEPFQPVKEATQL
# Variants of: B1
# Test: raw area under fraction-flipped curve 0-4 h after induction (AUC4h, not background-subtracted), DNA-recorder readout of cleavage of the substrate (dimensionless); higher = more cleavage of the substrate by the protease variant
# Conditions: temperature: 34 °C; time window: 0-4 h after rhamnose induction
# Experimental: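 In vivo DNA recorder in E. coli TOP10(DE3) ΔrhaA at 34 °C. Each TEVp single-site mutant (parent TEVp 0) is paired with a single-site variant of the 7-mer TEVs (canonical ENLYFQ|S). The substrate sits between flexible linkers in a Bxb1-sfGFP-TEVs-SsrA fusion, so cleavage stabilises Bxb1 and speeds flipping of a recombination array, read by NGS. The value is the raw area under the fraction-flipped curve over 0-4 h after rhamnose induction (AUC4h), with ≥20 reads per time point. It is not background-subtracted; inactive controls average about 0.047.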
# 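Also: Bxb1 expression induced with 0.2% (w/v) L-rhamnose at OD600 near 0.5, cultures sampled hourly, flipped fraction per protease–substrate barcode pair counted by paired-end Illumina sequencing.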
Variant,area with substrate ENLCFQS,area with substrate ENLDFQS,area with substrate ENLFFQS,area with substrate ENLHFQS,area with substrate ENLIFQS,area with substrate ENLKFQS,area with substrate ENLLFQS,area with substrate ENLNFQS,area with substrate ENLPFQS,area with substrate ENLQFQS,area with substrate ENLRFQS,area with substrate ENLSFQS,area with substrate ENLWFQS,area with substrate ENLMFQS,area with substrate ENLVFQS,area with substrate ENLTFQS,area with substrate ENLEFQS,area with substrate ENLGFQS
MGESLFKGPRDYNPISSSICHLTNESDGHTTSLYGIGFGPFIITNKHLFRRNNGTLVVQSLHGVFKVKDTTTLQQHLVDGRDMIIIRMPKDFPPFPQKLKFREPQREERICLVTTNFQTKSMSSMVSDTSCTFPSGDGIFWKHWIQTKDGQCGSPLVSTRDGFIVGIHSASNFTNTNNYFTSVPKNFMELLTNQEAQQWVSGWRLNADSVLWGGHKVFMVKNEEPFQPVKEATQL [P222N],0.0584,0.0656,0.0879,0.0737,0.0829,0.0768,0.0695,0.0644,0.0643,0.0688,0.0862,0.0569,0.0848,,,,,
MGESLFKGPRDYNPISSSICHLTNESDGHTTSLYGIGFGPFIITNKHLFRRNNGTLVVQSLHGVFKVKDTTTLQQHLVDGRDMIIIRMPKDFPPFPQKLKFREPQREERICLVTTNFQTKSMSSMVSDTSCTFPSGDGIFWKHWIQTKDGQCGSPLVSTRDGFIVGIHSASNFTNTNNYFTSVPKNFMELLTNQEAQQWVSGWRLNADSVLWGGHKVFMVKPEESFQPVKEATQL [P225S],0.0969,0.0704,0.079,0.0831,0.0751,0.0915,0.0764,,,,0.0971,0.0441,0.0637,,,,,
MGESLFKGPRDYNPISSSICHLTNESDGHTTSLYGIGFGPFIITNKHLFRRNNGTLVVQSLHGVFKVKDTTTLQQHLVDGRDMIIIRMPKDFPPFPQKLKFREPQREERICLVTTNFQTKSMSSMVSDTSCTFPSGDGIFWKHWIQTKDGQCGSPLVSTRDGFIVGIHSASNFTNTNNYFTSVPKNFMELLTNQEAQQWVSGWRLNADSVLWGGHKVFMVKPEEPFNPVKEATQL [Q227N],0.0501,0.0713,0.077,0.0865,0.0723,0.0802,0.087,0.0637,0.0635,0.0628,0.067,0.0608,0.0569,0.0774,,,,
MGESLFKGPRDYNPISSSICHLTNESDGHTTSLYGIGFGPFIITNKHLFRRNNGTLVVQSLHGVFKVKDTTTLQQHLVDGRDMIIIRMPKDFPPFPQKLKFREPQREERICLVTTNFQTKSMSSMVSDTSCTFPSGDGIFWKHWIQTKDGQCGSPLVSTRDGFIVGIHSASNFTNTNNYFTSVPKNFMELLTNQEAQQWVSGWRLNADSVLWGGHKVFMVKPEEPFYPVKEATQL [Q227Y],0.0657,,0.0956,0.069,0.0855,0.0728,,0.0674,0.0667,0.0645,0.0643,0.063,0.0702,,0.0553,,,
MGESLFKGPRDYNPISSSICHLTNESDGHTTSLYGIGFGPFIITNKHLFRRNNGTLVVQSLHGVFKVKDTTTLQQHLVDGRDMIIIRMPKDFPPFPQKLKFREPQREERICLVTTNFQTKSMSSMVSDTSCTFPSGDGIFWKHWIQTKDGQCGSPLVSTRDGFIVGIHSASNFTNTNNYFTSVPKNFMELLTNQEAQQWVSGWRLNADSVLWGGHKVFMVKPEEPFQAVKEATQL [P228A],0.0669,0.103,,0.0788,0.0869,,,0.0504,0.0691,,,,,,0.09,,,
MGESLFKGPRDYNPISSSICHLTNESDGHTTSLYGIGFGPFIITNKHLFRRNNGTLVVQSLHGVFKVKDTTTLQQHLVDGRDMIIIRMPKDFPPFPQKLKFREPQREERICLVTTNFQTKSMSSMVSDTSCTFPSGDGIFWKHWIQTKDGQCGSPLVSTRDGFIVGIHSASNFTNTNNYFTSVPKNFMELLTNQEAQQWVSGWRLNADSVLWGGHKVFMVKPEEPFQEVKEATQL [P228E],0.109,,0.066,,0.0864,,,0.0917,,,,,,,0.0864,0.0807,,
MGESLFKGPRDYNPISSSICHLTNESDGHTTSLYGIGFGPFIITNKHLFRRNNGTLVVQSLHGVFKVKDTTTLQQHLVDGRDMIIIRMPKDFPPFPQKLKFREPQREERICLVTTNFQTKSMSSMVSDTSCTFPSGDGIFWKHWIQTKDGQCGSPLVSTRDGFIVGIHSASNFTNTNNYFTSVPKNFMELLTNQEAQQWVSGWRLNADSVLWGGHKVFMVKPEEPFQPPKEATQL [V229P],0.0635,0.0614,0.0801,0.0839,0.0724,0.0781,0.0694,0.058,0.0658,,0.0752,0.0537,0.0565,0.0839,0.106,,0.0638,
MGESLFKGPRDYNPISSSICHLTNESDGHTTSLYGIGFGPFIITNKHLFRRNNGTLVVQSLHGVFKVKDTTTLQQHLVDGRDMIIIRMPKDFPPFPQKLKFREPQREERICLVTTNFQTKSMSSMVSDTSCTFPSGDGIFWKHWIQTKDGQCGSPLVSTRDGFIVGIHSASNFTNTNNYFTSVPKNFMELLTNQEAQQWVSGWRLNADSVLWGGHKVFMVKPEEPFQPVKPATQL [E231P],0.0885,0.0931,0.0895,,,0.084,0.0782,0.0729,,,,0.0464,,,,,,0.0664
MGESLFKGPRDYNPISSSICHLTNESDGHTTSLYGIGFGPFIITNKHLFRRNNGTLVVQSLHGVFKVKDTTTLQQHLVDGRDMIIIRMPKDFPPFPQKLKFREPQREERICLVTTNFQTKSMSSMVSDTSCTFPSGDGIFWKHWIQTKDGQCGSPLVSTRDGFIVGIHSASNFTNTNNYFTSVPKNFMELLTNQEAQQWVSGWRLNADSVLWGGHKVFMVKPEEPFQPVKRATQL [E231R],0.0712,0.0774,0.077,0.0721,,0.0673,,,0.0583,0.0834,0.073,0.054,0.0753,0.062,,,,0.0601
